Test results reported in PMC6919601, “Identification of Plasmodium dipeptidyl aminopeptidase allosteric inhibitors by high throughput screening” (PLoS ONE, 2019).
The whole screen tested about 110,000 compounds, of which about 230 (0.21%) showed an effect of 50% or more. The list shows a part of the results.

These compounds were tested against DPAP1 (Plasmodium falciparum, UniProt Q8IIJ9) (assay: primary screen, percent inhibition; read by cleavage of a fluorogenic dipeptide substrate; higher = more effect of the substance).
Sequence of DPAP1 (Q8IIJ9 whole entry, looked up): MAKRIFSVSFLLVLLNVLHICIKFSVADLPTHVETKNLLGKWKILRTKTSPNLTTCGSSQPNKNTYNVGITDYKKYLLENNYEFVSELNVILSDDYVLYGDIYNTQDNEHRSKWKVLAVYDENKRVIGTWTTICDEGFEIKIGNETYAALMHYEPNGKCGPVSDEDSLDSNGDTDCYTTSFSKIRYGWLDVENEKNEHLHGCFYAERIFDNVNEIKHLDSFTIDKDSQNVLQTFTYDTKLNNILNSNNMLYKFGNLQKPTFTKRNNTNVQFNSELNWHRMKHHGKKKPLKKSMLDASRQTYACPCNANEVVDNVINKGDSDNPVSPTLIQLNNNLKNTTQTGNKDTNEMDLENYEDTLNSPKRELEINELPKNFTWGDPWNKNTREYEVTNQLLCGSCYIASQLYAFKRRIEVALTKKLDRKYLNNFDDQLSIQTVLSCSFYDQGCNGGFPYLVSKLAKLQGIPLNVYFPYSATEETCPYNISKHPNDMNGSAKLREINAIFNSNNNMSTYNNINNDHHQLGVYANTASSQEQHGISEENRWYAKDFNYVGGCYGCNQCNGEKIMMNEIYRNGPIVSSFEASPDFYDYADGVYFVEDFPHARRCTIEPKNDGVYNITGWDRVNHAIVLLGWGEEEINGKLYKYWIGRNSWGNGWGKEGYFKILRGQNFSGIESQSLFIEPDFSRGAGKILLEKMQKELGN
Set-up: species or system P. falciparum D10 trophozoite lysates; single well
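Note: 30 min substrate incubation versus DMSO and 10 µM JCP410 controls.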

Row | SMILES | % Inhibition @ 10 uM
1 | COc1ccc(Cl)cc1-n1nnc(-c2nsc(NC(=O)c3cccs3)n2)c1C | -0.658%
2 | CCOC(=O)c1c(Cl)nc2ccccc2c1Cl | -4.27%
3 | CC(C)C[C@H](NC(=O)N1CCN(c2ccccn2)CC1)C(=O)NCC#N | -1.82%
4 | COc1ccc(N2CCN(C(=O)CN(C)S(=O)(=O)c3c(C)cc(C)cc3C)CC2)cc1 | -2.29%
5 | Cc1cc(O)nc(N(C)Cc2ccccc2)n1 | 2.16%
6 | Cc1nn(C(C)C(=O)N2CCN(c3ccccn3)CC2)c(=O)c2nn(-c3ccccc3)c(C)c12 (centres unmarked) | 0.58%
7 | O=C(O)c1cc(NS(=O)(=O)c2ccc(F)cc2)ccc1O | -0.736%
8 | Cc1cc(Cl)nc(Cl)c1C#N | -0.818%
9 | O=C(CCCc1cn(Cc2ccc(F)cc2)c2ccccc12)NCC1CCCO1 (centres unmarked) | 3.8%
10 | Cc1cc(C)nc(SCc2nnc(SCC(N)=O)n2-c2cccc(C(F)(F)F)c2)n1 | -3.37%
11 | C=CCNC(=O)/C(=C/c1ccc2c(c1)OCO2)NC(=O)c1ccc(OC)cc1 | 2.51%
12 | COc1cc(OC)c(OC)cc1CN1CCN(C(=O)COc2ccccc2)CC1 | 2.3%
13 | Cc1ccc(-n2ncc3c(NCCc4ccc(S(N)(=O)=O)cc4)ncnc32)c(C)c1 | 2.95%
14 | Cc1cc(C)c2nc(N3CCC(C(=O)NCC(C)c4ccccc4)CC3)sc2c1 (centres unmarked) | 4.95%
15 | O=C1/C(=C\c2ccccc2)N=C2SC=C(c3ccc(Br)cc3)N12 | 3.05%
16 | CCCC(=O)Nc1ccc(Oc2ccc(NC(=O)CCC)cc2)cc1 | 0.605%
17 | CSc1ccc(/C=C2/SC(=O)NC2=O)cc1 | -0.582%
18 | N#CC1=C(N)OC2=C(C(=O)CC(c3ccccc3)C2)C1c1ccc(Br)s1 (centres unmarked) | -12.9%
19 | CCO/C(O)=C1\C(C)=NC2=C(C(=O)CC(C)(C)C2)C1c1ccc(OC)c(O)c1 (centres unmarked) | -1.71%
20 | O=S(=O)(c1ccc2ccccc2c1)N1CCN(c2nnc(-c3ccccc3)c3ccccc23)CC1 | -3.41%
21 | Cc1c(O)ccc2cc(S(=O)(=O)c3ccccc3)c(=O)oc12 | 0.44%
22 | CCOC(=O)c1ccc2nc(Nc3nc4c(F)cccc4s3)sc2c1 | -3.09%
23 | COc1ccc(CCC(=O)Nc2ccc(S(N)(=O)=O)cc2)cc1 | 4.64%
24 | CC(=O)NC(C(=O)c1ccccc1)C(=O)c1ccccc1 | 8.4%
25 | Cc1cccc(C(=O)NC(C)c2nc3ccccc3n2C)c1 (centres unmarked) | 0.505%

Row | SMILES | % Inhibition @ 10 uM
26 | COc1cccc(C(=O)NCCN2CCCC2)c1 | 6.35%
27 | COc1cc(/C=C2/S/C(=N/c3ccccc3)N(C)C2=O)ccc1OCC#N | 11%
28 | N#CCNC(=O)[C@H](Cc1ccccc1)NC(=O)c1ccc(-c2ccccc2Cl)cc1 | 1.35%
29 | COc1cc2nc(NCCN3C(C)CCCC3C)n3nc(-c4cccnc4)nc3c2cc1OC (centres unmarked) | -4.21%
30 | CCn1cc(CNC(=O)c2sc3cccc(Cl)c3c2Cl)cn1 | 0.983%
31 | Cn1cc(NC(=O)N2CCOCC2)c2ccccc2c1=O | 3.72%
32 | CCOC(=O)c1sc(NC(=O)c2cc(=O)c3ccccc3o2)nc1C | 0.0289%
33 | O=C(COc1cccc2ccccc12)Nc1ccc(S(=O)(=O)N2CCCC2)cc1 | -1.51%
34 | CCN1C(=O)C(=Cc2ccc(N(CC)CC)cc2)C(=O)N(CC)C1=S | 5.66%
35 | O=C1/C(=C\c2ccc(Br)o2)CC/C1=C/c1ccc(Br)o1 | 1.07%
36 | COc1ccc(-c2cc(C(=O)NCCCN3CCOCC3)c3cc(C(C)C)ccc3n2)cc1 | -2.26%
37 | CC(=O)c1nn(-c2cccc(Br)c2)c(-c2cccs2)c1C#N | 2.01%
38 | COCCNc1nc2ccccc2n2nnnc12 | 5.84%
39 | COc1ccc(-c2nc(SC)cc(N3CCN(C)CC3)n2)cc1 | -11.4%
40 | CC1CCc2c(sc(NC(=O)C3CC=CCC3C(=O)O)c2C(N)=O)C1 (centres unmarked) | 16.5%
41 | CCS(=O)(=O)N1CCC2(CC1)OC(=O)C(C)=C2C(=O)NCCc1ccc(OC)c(OC)c1 | -5.72%
42 | COc1ccc(NC(=O)CN(Cc2ccc(Cl)cc2)S(=O)(=O)c2ccccc2)cc1Cl | 3.5%
43 | O=C(Nc1ccc2ccccc2c1)c1ccccc1F | -5.11%
44 | N#Cc1c(-c2ccccc2)cc(C(F)(F)F)nc1S | 76.9%
45 | COc1ccc(-n2c(-c3ccccc3)cn(-c3ccc(C)cc3)c2=O)cc1 | 1.15%
46 | CNC(=O)c1cc2c(=O)n3cc(C)ccc3nc2n(Cc2ccco2)c1=N | -3.27%
47 | CC(=O)NS(=O)(=O)c1ccc(NC(=O)C2CC=CCC2C(=O)O)cc1 (centres unmarked) | -0.318%
48 | C=CCNc1nnc(COc2ccc(Br)cc2)s1 | -1.71%
49 | CCc1ccc(OCC(=O)Nc2ccc(S(=O)(=O)N3CCOCC3)cc2)cc1 | -7.84%
50 | O=C(COc1ccccc1F)n1nnc2ccccc21 | -1.6%
